Reference: paper PMC7819943, “Rice protein-binding microarrays: a tool to detect cis-acting elements near promoter regions in rice”
The list shows a part of the results.

The sequences below were run against T1, OsWOX13 (Oryza sativa, UniProt Q5QMM3 1-267) (assay: protein-binding microarray (RPBM); PBS, 2% BSA, 51.3 ng/ul salmon testes DNA, 50 uM zinc acetate, 200 nM TF, 25 C, 1 h; high values mean tight binding). Details: protein: recombinant; tags: N-terminal polyhistidine and DsRed monomer fusion (pET32a); label: CyDye5-dUTP incorporated in the synthesized complementary strand; 3' TTTTT single-stranded linker to array surface; dsDNA, one strand shown.
T1 sequence: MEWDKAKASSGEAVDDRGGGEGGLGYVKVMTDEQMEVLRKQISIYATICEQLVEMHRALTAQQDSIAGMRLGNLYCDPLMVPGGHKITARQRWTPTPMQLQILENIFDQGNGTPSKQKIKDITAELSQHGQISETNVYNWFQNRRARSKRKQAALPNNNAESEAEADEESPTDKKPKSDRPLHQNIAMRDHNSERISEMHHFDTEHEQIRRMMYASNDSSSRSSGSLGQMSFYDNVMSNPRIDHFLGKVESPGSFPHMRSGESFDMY
Method in brief: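 Ni–NTA purification followed expression in E. coli BL21-CodonPlus of transcription factors fused N-terminally to a polyhistidine tag and DsRed. At 200 nM in PBS with 2% BSA, salmon testes DNA and 50 µM zinc acetate, the protein was incubated for 1 h at 25 °C with a custom Agilent array that had been primer-extended with Cy5-dUTP and blocked with 2% BSA. After washing, the array was read on an Axon 4000B scanner. The binding signal is per-feature fluorescence intensity in arbitrary units.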

With “ACGCTTGATCTGAGCTATAATTTGTTCACCGGTGAATTGCCGGAGTCACCTAGTGCAG” as the sequence, how does the binding signal read?
Its binding signal is 3600 fluorescence intensity (a.u.).

Which binding signal does the source give for “TAATAAGGGATAATTGCTTATTTCACCCTATTTTAAAGCCCGGAGTCACCTAGTGCAG” here?
The binding signal was 3490 fluorescence intensity (a.u.).

Which binding signal does the source give for “TGTTAATTTCATGCTAGGTAGCATAAAGACTCTGACATACCGGAGTCACCTAGTGCAG” here?
The binding signal was 4690 fluorescence intensity (a.u.).

Which binding signal does the source give for “ATTAGCGCATGATTAATTGATTATTAACTATTTTAAACTTCGGAGTCACCTAGTGCAG” here?
Its binding signal is 27400 fluorescence intensity (a.u.).

Which binding signal does the source give for “GATAGATAGATAGATAGATAGATAGATAGATACTAGTACACGGAGTCACCTAGTGCAG” here?
The binding signal was 37000 fluorescence intensity (a.u.).

How did the binding signal turn out when “ACCCGATTTATTATTTTAGTCAAATCCCACGGTTAAGGTTCGGAGTCACCTAGTGCAG” was run?
Its binding signal is 4530 fluorescence intensity (a.u.).

With “CTAATTAATGACGCGTCCATTCGGATTTCGAGAATTCACACGGAGTCACCTAGTGCAG” as the sequence, how does the binding signal read?
The binding signal was 9920 fluorescence intensity (a.u.).

“CGTCAATCCAGTGATCCGTCTCTTTCCTGCGTACTATATCCGGAGTCACCTAGTGCAG” was tested. Which binding signal did it give?
The binding signal was 4110 fluorescence intensity (a.u.).

“ATACAAACCACTAGTAATTGACCCCACAGGTTTAAATTCCCGGAGTCACCTAGTGCAG” was tested. Which binding signal did it give?
Its binding signal is 6340 fluorescence intensity (a.u.).

“CTAGCTCCAAATCATTTATATCCAATCTAATAATTTATTCCGGAGTCACCTAGTGCAG” was tested. Which binding signal did it give?
Its binding signal is 4680 fluorescence intensity (a.u.).

With “TTTGTCAATTGATGTATACATATGTGCTTTGTGTTCCTACCGGAGTCACCTAGTGCAG” as the sequence, how does the binding signal read?
Its binding signal is 12200 fluorescence intensity (a.u.).

Which binding signal does the source give for “CGTCGCCGCAGTTTAATTGGCAGCTCACACACGCACGAGCCGGAGTCACCTAGTGCAG” here?
Its binding signal is 8320 fluorescence intensity (a.u.).

How did the binding signal turn out when “ACCATGATTTGCCTCCGAGCCGCCTTCCCCTTGACCTCCTCGGAGTCACCTAGTGCAG” was run?
Its binding signal is 18700 fluorescence intensity (a.u.).

Which binding signal does the source give for “CCATAATTGCGTATATATAAACACATGAACATCAGCAGCACGGAGTCACCTAGTGCAG” here?
Its binding signal is 33200 fluorescence intensity (a.u.).

With “GCTTGACAGCCACACTAACCAGAAGGAGGCCACACCCACACGGAGTCACCTAGTGCAG” as the sequence, how does the binding signal read?
The binding signal was 16200 fluorescence intensity (a.u.).

With “AGTTAATTACTGCCTCTACTATTGATCATGCATGTAAGATCGGAGTCACCTAGTGCAG” as the sequence, how does the binding signal read?
Its binding signal is 31100 fluorescence intensity (a.u.).

Which binding signal does the source give for “GGAAATAATTATCATATGGTTCTTTGGATCAAGGAATGGCCGGAGTCACCTAGTGCAG” here?
The binding signal was 21100 fluorescence intensity (a.u.).

With “GCGTAATTAGGCTCAAAAGATTTGTTTTGCAATTTGCGTGCGGAGTCACCTAGTGCAG” as the sequence, how does the binding signal read?
The binding signal was 34100 fluorescence intensity (a.u.).

For “AATGTTAAAACTTAATTTTAGATTTGATTTTAGGCTTCTTCGGAGTCACCTAGTGCAG”, which binding signal is on record?
The binding signal was 5830 fluorescence intensity (a.u.).

“AAAACGTGGTGATTGTTTGGTTATCCTCCAATATGTCACTCGGAGTCACCTAGTGCAG” was tested. Which binding signal did it give?
Its binding signal is 12800 fluorescence intensity (a.u.).

“CCGAATGACATATAGAAATTGGCATTTTAGGATGGGCAAACGGAGTCACCTAGTGCAG” was tested. Which binding signal did it give?
The binding signal was 6670 fluorescence intensity (a.u.).

For “CTAAATTTTACAAGATTTTGTTGGTTACGGATAATACTGACGGAGTCACCTAGTGCAG”, which binding signal is on record?
The binding signal was 8910 fluorescence intensity (a.u.).

How did the binding signal turn out when “ATAAATTTTAAATAGTTGGATTGGGACAAATAGAGTTGATCGGAGTCACCTAGTGCAG” was run?
The binding signal was 17300 fluorescence intensity (a.u.).

“TATAAATTTGACAATAAATATAACAATCAAATTTATCATACGGAGTCACCTAGTGCAG” was tested. Which binding signal did it give?
The binding signal was 4980 fluorescence intensity (a.u.).

Which binding signal does the source give for “GCTTACAGTCTTACACTAATTTATACATTATTCTTGGTCCCGGAGTCACCTAGTGCAG” here?
The binding signal was 5110 fluorescence intensity (a.u.).

For “TGCTTGAAATTGAAAACCTCAATGTCAAATCAGTCTTATTCGGAGTCACCTAGTGCAG”, which binding signal is on record?
Its binding signal is 4900 fluorescence intensity (a.u.).

“CTCATGATTCTGATTATAATGGCTAAAACATTAAGCGCGACGGAGTCACCTAGTGCAG” was tested. Which binding signal did it give?
The binding signal was 13500 fluorescence intensity (a.u.).

For “TGCCATTAACTTTTAAACATATATTTAATCGTGTAAATAACGGAGTCACCTAGTGCAG”, which binding signal is on record?
Its binding signal is 3380 fluorescence intensity (a.u.).

With “GTTGTATATGTAATTGATGATGCACTGTCTGAACTTCAGACGGAGTCACCTAGTGCAG” as the sequence, how does the binding signal read?
The binding signal was 20600 fluorescence intensity (a.u.).

“AACAAACCTTACCAATTAAGTTATGTCCATATCTTAATGGCGGAGTCACCTAGTGCAG” was tested. Which binding signal did it give?
Its binding signal is 6200 fluorescence intensity (a.u.).

Which binding signal does the source give for “TTGCATCAAATTTAAACACTCATCAAGATTCACGCACTAACGGAGTCACCTAGTGCAG” here?
Its binding signal is 3290 fluorescence intensity (a.u.).

How did the binding signal turn out when “TCAAATCAGGGCGCAATTAGGCTTCAAAGATTCGTCACGCCGGAGTCACCTAGTGCAG” was run?
Its binding signal is 3850 fluorescence intensity (a.u.).

“ATTACAAATAGATGGAGCACGTCCCTAGAGAGTAGCAGCTCGGAGTCACCTAGTGCAG” was tested. Which binding signal did it give?
The binding signal was 3170 fluorescence intensity (a.u.).

With “CTAATTAATTCATCATTAGCAAATGTGTACTGTACCACCACGGAGTCACCTAGTGCAG” as the sequence, how does the binding signal read?
Its binding signal is 36800 fluorescence intensity (a.u.).

How did the binding signal turn out when “TTAAATTGCAAAATTGAACATTTAACTCAATTGTGTATTTCGGAGTCACCTAGTGCAG” was run?
The binding signal was 31700 fluorescence intensity (a.u.).

With “TGCAATTTTCAATCATACTATTTCTGATAAAGTTGTCAAACGGAGTCACCTAGTGCAG” as the sequence, how does the binding signal read?
The binding signal was 20900 fluorescence intensity (a.u.).

How did the binding signal turn out when “TAGATTACTTCATTAATTGGCACGGCTTGTGATCAAACAACGGAGTCACCTAGTGCAG” was run?
The binding signal was 13700 fluorescence intensity (a.u.).

How did the binding signal turn out when “AATAATGAATTTAAAATAAAATAAAACTGCATGCAAGCGACGGAGTCACCTAGTGCAG” was run?
Its binding signal is 5650 fluorescence intensity (a.u.).

With “TGCAAATTGCGTAAGATTATATTAGTCAAAGGGCACTGTGCGGAGTCACCTAGTGCAG” as the sequence, how does the binding signal read?
The binding signal was 22400 fluorescence intensity (a.u.).

For “ACACAAATTCAATTAGATAACTAATTTCAGACTCTGTCAACGGAGTCACCTAGTGCAG”, which binding signal is on record?
Its binding signal is 27100 fluorescence intensity (a.u.).

For “ACTCAGTTTAAATGGCATTTTACCACAATCTGTGTCCATGCGGAGTCACCTAGTGCAG”, which binding signal is on record?
The binding signal was 4100 fluorescence intensity (a.u.).

“GCAGCCGCAGCCAATCAGCTACGCAGACAGCAAGCAACAGCGGAGTCACCTAGTGCAG” was tested. Which binding signal did it give?
The binding signal was 8080 fluorescence intensity (a.u.).
